Laboratory results taken from the supplement of paper PMC3334620.
Over roughly 33,000 sequences, “E-score (-0.5 to 0.5)” has its median near -0.036; the highest 2% begin near 0.37. Some of the results follow.

biological target: T1, Yer064c (UniProt P40041); test: PBM E-score (8-mer binding enrichment) (E-score (-0.5 to 0.5)); higher = stronger / more preferred TF binding; most listed sequences are background and not binding sites; conditions: protein concentration: 200 nM; construct: GST-full length
T1 sequence: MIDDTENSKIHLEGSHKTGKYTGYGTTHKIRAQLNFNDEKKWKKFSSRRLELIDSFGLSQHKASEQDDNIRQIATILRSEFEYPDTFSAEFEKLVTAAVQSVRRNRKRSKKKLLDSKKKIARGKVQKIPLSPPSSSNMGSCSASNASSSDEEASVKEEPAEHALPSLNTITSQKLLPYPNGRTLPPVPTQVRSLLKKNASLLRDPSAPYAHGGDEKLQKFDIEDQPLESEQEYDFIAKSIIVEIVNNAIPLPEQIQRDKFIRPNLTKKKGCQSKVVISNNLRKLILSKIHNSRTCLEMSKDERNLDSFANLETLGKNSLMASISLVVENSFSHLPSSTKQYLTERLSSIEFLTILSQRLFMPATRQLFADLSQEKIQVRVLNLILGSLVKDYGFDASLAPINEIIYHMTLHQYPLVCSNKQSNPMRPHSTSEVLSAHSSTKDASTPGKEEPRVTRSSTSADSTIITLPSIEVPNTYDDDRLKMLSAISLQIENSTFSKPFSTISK
Method in brief: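 Masliner-normalised scans of fluorescent anti-GST signal were the basis for scoring. That signal came from GST-tagged yeast transcription factors applied at about 100-200 nM to double-stranded universal all-10-mer Agilent arrays on fresh or once-stripped slides. Each ungapped eight-base word, pooled with its reverse complement, received an E-score from the Universal PBM Analysis Suite.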

Sequence | PBM E-score
AGCATTAC | -0.106
AAAGTATC | -0.108
ACTGCCGG | -0.00685
ATCGCCTC | -0.0199
ATAAACCA | 0.0471
AATCTCCG | 0.0695
TGCCTGAA | 0.141
ACTCACAG | 0.353
CTCCGATC | -0.141
CTCGGCCC | -0.206
AGGAATAG | 0.0464
GCTGGAAA | -0.0307
GAGGCATA | -0.252
CATTTCAA | 0.0522
CGCGAACG | 0.0374
AGCTGACC | -0.078
AAACGATC | -0.00507
GAATAGGC | -0.269
CGGCCTCC | -0.281
AAGGCCGA | 0.0262
ACCTACGC | -0.168
AGTAACAT | -0.0463
AGACGTAG | -0.0718
ATGGACGC | -0.174
AGGGCACA | -0.184

Sequence | PBM E-score
GATCCTCA | 0.0474
GGGATCCC | -0.276
ATGCCAGC | -0.325
CAGTCTCA | 0.269
AGCATGAT | 0.26
ATCTCAAA | 0.0471
GCGACAAA | -0.0918
ACACTGAA | 0.122
TGTGGCAA | 0.111
GACTCCAA | 0.418
CAAGACTA | 0.329
CATGGGAG | -0.123
GATATCAA | -0.031
GAACTGCA | -0.0828
GCTACAGA | -0.14
CCTGACCA | 0.00016
CGCGGTAG | -0.0407
CAGACTTA | 0.0931
AGATTGAA | 0.113
AACATACC | 0.0383
TCTCCGAA | -0.0732
TCATACCA | 0.21
ACAGGATA | -0.158
GCGGTAAA | 0.0938
ACGCTCCA | -0.218

Sequence | PBM E-score
ATACCTCC | -0.133
CCCGCCCG | 0.0526
ACCTCCCC | -0.0594
ATCTGATA | -0.201
ATTGTCTA | -0.0194
GCAATCGC | -0.105
AATGGCTC | 0.283
CGTAGGCA | -0.321
CTAATTGA | 0.183
CCACAATA | -0.113
ATAACAAC | -0.0108
ATATTAAC | 0.02
GCTCGTTA | -0.101
CAAACGTC | -0.134
CCTAACTC | -0.0235
CTCGGACA | -0.146
GCATACCC | -0.0393
CTCTGCCA | -0.0828
ATACAGGG | 0.0392
CTCTACTA | 0.0548
CAGTCTCG | 0.0971
ATACGCGA | -0.0224
AATACGAT | 0.0537
CCGATGCA | -0.21
GTTGGCGA | -0.0506

Sequence | PBM E-score
CCGGATCA | -0.0497
CCTGTGCC | -0.235
GATAGCGA | -0.0952
ATACCGCA | 0.0157
CTGGTCCA | -0.238
AGAAGAAG | -0.21
CTCAGGCA | 0.122
CCAGCTAG | -0.14
GCCGCAAC | -0.147
ATACAGAG | -0.146
ATCAACGC | 0.00921
GGTGCCCA | -0.198
AGTACGTG | -0.00532
AAAATCCC | -0.147
GCTGACAA | 0.00774
CTTGCAAC | 0.106
AAGCCTGA | -0.0685
GTACTAGA | 0.0831
ACTTACAG | 0.0708
CGCGGTCA | -0.0431
ACATCGGG | -0.194
GAACCTAC | -0.123
ACTTAGTA | 0.162
GCCCGAAC | -0.288
ACTCCGTC | 0.162

Sequence | PBM E-score
AAGTGGGA | 0.0265
CTCTCGGC | -0.194
AGCTAGCC | -0.101
CCTCAACC | -0.0921
GGAAGGAA | -0.188
AGTCCCTC | 0.0318
AAGGTATG | -0.134
ATTCGAGA | 0.00617
ACTTGTGA | 0.235
ACCCACCC | 0.111
CTCCCGCA | -0.13
GACATCAA | 0.00396
GGTAGTAC | 0.0103
AACACAAG | -0.12
AGAAAGCA | 0.0508
TGAAAACA | -0.0624
ATCTATAC | 0.178
CCACTCCC | -0.172
AACACAGC | 0.0995
CGGCTTGC | -0.134
GGTTGGGA | 0.00893
CAGGCGGC | 0.0353
CATATCGA | 0.145
CTCAACAC | 0.0907
ACACTTAT | -0.107

Sequence | PBM E-score
CACTTCAG | -0.0132
ACCGTACT | -0.0177
AATCCTCT | -0.0505
ACCGTTGA | 0.0201
CTGACCCC | -0.221
ATCCAGGA | -0.103
CACTACGC | -0.197
GAGCAAAA | -0.246
CAACTGCG | -0.00209
CTCCCTCC | -0.146
TGACTACA | 0.476
AACCATAC | 0.0411
ACATTCGG | -0.0297
GAACAGCC | -0.168
CAGGTAGG | -0.142
AGAGTCAC | 0.485
ACTAGTAA | 0.256
CACTTGGA | -0.00507
AGGCCCTA | -0.248
AGATACTA | 0.0696
GACTGAAA | 0.352
AGCCATCA | 0.299
CGAAAACC | -0.0887
AATATTAT | 0.0993
CGTTAACC | 0.0597

Sequence | PBM E-score
TCTAGGAA | 0.106
GAGAAAGA | 0.107
CTAAGTCA | 0.449
GGTTGGCA | -0.217
CATTCGTC | -0.0179
AATTCGCC | 0.0807
ATAGCTGC | 0.00331
GCGGGCAA | -0.0796
CCCGAGAG | -0.217
CCCAACTA | -0.119
CTACGTGA | 0.0339
ACTACGTA | 0.164
ACACCATA | 0.0514
CCCATCTA | -0.0727
ATGATCCA | 0.111
GCGTTTGA | -0.083
AATATTGT | 0.0413
AGCATATC | -0.158
TAACCATA | 0.224
AATCTAAC | 0.0147
CTGCCATA | -0.154
AGCGCTAC | 0.0144
